In all, about 18,000 sequences were measured (“TetR repression strength (sort-seq, GFP reporter)”: median about 0.23, highest 2% from about 0.68 on). This is one part of the list.
Biological target: TetR (class B, Tn10) (UniProt P04483)
Test: TetR repression strength (sort-seq, GFP reporter) (relative to tetO2 = 1); higher = stronger repression
Conditions: E. coli
Procedure, shortened: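 In LB with 50 µg/mL chloramphenicol, E. coli SIG10-MAX holding a low-copy library with eight randomized operator positions between a constitutive promoter and sfGFP, plus constitutive TetR, grew for 5 h at 37 °C. FACS then sorted 10^6 cells into 13 fluorescence bins for Illumina sequencing of each bin. Repression strength equals the top bin index plus one less the read-weighted mean bin, normalized to the unaltered operator. Values from three independent transformations were averaged when reads were ≥30 in every replicate and the CV was ≤0.5.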

Sequence of UniProt P04483 (P04483 whole entry): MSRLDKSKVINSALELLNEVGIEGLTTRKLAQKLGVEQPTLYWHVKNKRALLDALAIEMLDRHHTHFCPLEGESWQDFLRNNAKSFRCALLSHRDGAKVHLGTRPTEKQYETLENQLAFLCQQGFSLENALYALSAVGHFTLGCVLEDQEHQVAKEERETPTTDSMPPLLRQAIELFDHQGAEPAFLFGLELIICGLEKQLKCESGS

Row | Sequence | TetR repression strength
1 | TCCCTATCAGTGCATGAGA | 0.577
2 | TCCCCCGAAGTCAGAGAGA | 0.179
3 | TCCCGTTAAGTGACAGAGA | 0.328
4 | TCCCTGCCAGTGTGGGAGA | 0.127
5 | TCCCGACCAGTTTATGAGA | 0.311
6 | TCCCAAGGAGTATTAGAGA | 0.217
7 | TCCCGGTGAGTGCTGGAGA | 0.305
8 | TCCCATTGAGTTGATGAGA | 0.304
9 | TCCCGGCGAGTGGATGAGA | 0.274
10 | TCCCGCATAGTTTGCGAGA | 0.0306
11 | TCCCGTCTAGTGGAGGAGA | 0.155
12 | TCCCGAGCAGTGATGGAGA | 0.371
13 | TCCCCGTGAGTAACCGAGA | 0.104
14 | TCCCTAGAAGTTATGGAGA | 0.315
15 | TCCCCGGCAGTATAGGAGA | 0.242
16 | TCCCTGGTAGTGGCTGAGA | 0.365
17 | TCCCTGAGAGTCGGGGAGA | 0.0822
18 | TCCCTCGCAGTCAAAGAGA | 0.164
19 | TCCCCGCGAGTGGGTGAGA | 0.109
20 | TCCCCTACAGTTTCTGAGA | 0.351
21 | TCCCGGACAGTGCCGGAGA | 0.167
22 | TCCCGCCCAGTCTTGGAGA | 0.242
23 | TCCCGTGGAGTTCTCGAGA | 0.13
24 | TCCCTAGTAGTAACTGAGA | 0.259
25 | TCCCGAGGAGTGCCGGAGA | 0.195
26 | TCCCCAATAGTGTTTGAGA | 0.311

Row | Sequence | TetR repression strength
27 | TCCCGCATAGTTCTCGAGA | 0.242
28 | TCCCGAAGAGTTGAGGAGA | 0.0868
29 | TCCCATCAAGTAGGTGAGA | 0.145
30 | TCCCGCGGAGTCGATGAGA | 0.207
31 | TCCCGGTCAGTGAAGGAGA | 0.236
32 | TCCCGTCTAGTTGAGGAGA | 0.24
33 | TCCCCGCAAGTTTTCGAGA | 0.306
34 | TCCCTTGGAGTCTGGGAGA | 0.224
35 | TCCCGGTGAGTAGGAGAGA | 0.109
36 | TCCCCCGAAGTATGCGAGA | 0.215
37 | TCCCACCTAGTGAGAGAGA | 0.396
38 | TCCCGCTGAGTCAATGAGA | 0.333
39 | TCCCTTCCAGTGATAGAGA | 0.668
40 | TCCCTGGGAGTCTAAGAGA | 0.0478
41 | TCCCTAATAGTTGCCGAGA | 0.275
42 | TCCCTGGGAGTAGGGGAGA | 0.287
43 | TCCCGTAGAGTTCTAGAGA | 0.202
44 | TCCCTGTTAGTGTAGGAGA | 0.153
45 | TCCCCATTAGTGCAGGAGA | 0.302
46 | TCCCAATGAGTTTGGGAGA | 0.256
47 | TCCCTACGAGTAGTGGAGA | 0.192
48 | TCCCCCACAGTCACAGAGA | 0.27
49 | TCCCTGTGAGTGCTGGAGA | 0.309
50 | TCCCGACAAGTGGAGGAGA | 0.113
51 | TCCCGCGTAGTACGGGAGA | 0.334
52 | TCCCTGGAAGTGAGGGAGA | 0.0391

Row | Sequence | TetR repression strength
53 | TCCCTTTAAGTGTCGGAGA | 0.319
54 | TCCCGGGAAGTTGGCGAGA | 0.238
55 | TCCCGGCTAGTACTCGAGA | 0.0814
56 | TCCCTTACAGTGGTCGAGA | 0.266
57 | TCCCAGGAAGTCGAAGAGA | 0.24
58 | TCCCTCAAAGTGAGCGAGA | 0.00441
59 | TCCCACATAGTGGGCGAGA | 0.147
60 | TCCCGAACAGTGTGCGAGA | 0.108
61 | TCCCGTATAGTATAAGAGA | 0.0424
62 | TCCCGGGGAGTGACTGAGA | 0.143
63 | TCCCTGTGAGTACCGGAGA | 0.138
64 | TCCCAGAGAGTTGGGGAGA | 0.14
65 | TCCCATCAAGTATAAGAGA | 0.104
66 | TCCCCCGTAGTATGCGAGA | 0.284
67 | TCCCGGAAAGTTGAAGAGA | 0.33
68 | TCCCAGAGAGTGGATGAGA | 0.235
69 | TCCCTTGCAGTAGTAGAGA | 0.244
70 | TCCCTTCTAGTAGCAGAGA | 0.419
71 | TCCCGTCTAGTATACGAGA | 0.243
72 | TCCCGAACAGTATTCGAGA | 0.246
73 | TCCCTCCCAGTAATGGAGA | 0.325
74 | TCCCTATAAGTTAGAGAGA | 0.244
75 | TCCCGGAGAGTGAGTGAGA | 0.225
76 | TCCCCGCTAGTGGTCGAGA | 0.41
77 | TCCCGTACAGTCGAGGAGA | 0.0576
78 | TCCCGTAAAGTCGATGAGA | 0.233

Row | Sequence | TetR repression strength
79 | TCCCTTGGAGTAAATGAGA | 0.502
80 | TCCCTCGTAGTAAACGAGA | 0.389
81 | TCCCGTAGAGTCTGAGAGA | 0.219
82 | TCCCGAGAAGTTGGGGAGA | 0.131
83 | TCCCCGCGAGTGAACGAGA | 0.211
84 | TCCCACGAAGTGTGTGAGA | 0.197
85 | TCCCTTCCAGTGATGGAGA | 0.307
86 | TCCCGGTGAGTACATGAGA | 0.00259
87 | TCCCTACGAGTGGCGGAGA | 0.0202
88 | TCCCGTCGAGTGCTGGAGA | 0.258
89 | TCCCGGTTAGTTTATGAGA | 0.347
90 | TCCCGTCGAGTGAGAGAGA | 0.396
91 | TCCCGTGAAGTGCCCGAGA | 0.132
92 | TCCCGTGGAGTATGGGAGA | 0.207
93 | TCCCGGCCAGTGTGTGAGA | 0.172
94 | TCCCGCTCAGTTGTCGAGA | 0.262
95 | TCCCGGGGAGTTCGTGAGA | 0.0864
96 | TCCCTATCAGTGCTTGAGA | 0.701
97 | TCCCGGTTAGTCCTGGAGA | 0.149
98 | TCCCAAATAGTGATTGAGA | 0.328
99 | TCCCTGTCAGTTAAGGAGA | 0.329
100 | TCCCACTAAGTGAAGGAGA | 0.308
101 | TCCCTTAGAGTGATAGAGA | 0.504
102 | TCCCCTAGAGTGCGCGAGA | 0.901
103 | TCCCTCACAGTTACGGAGA | 0.113
104 | TCCCATGAAGTTAACGAGA | 0.104

Row | Sequence | TetR repression strength
105 | TCCCAACGAGTCAAGGAGA | 0.352
106 | TCCCCGAGAGTTTCCGAGA | 0.314
107 | TCCCAGGGAGTTGCTGAGA | 0.125
108 | TCCCCCTGAGTAGGTGAGA | 0.311
109 | TCCCTATCAGTGACAGAGA | 0.863
110 | TCCCTGAGAGTTGGCGAGA | 0.198
111 | TCCCCGCGAGTTGGTGAGA | 0.0294
112 | TCCCGGCTAGTTTAGGAGA | 0.285
113 | TCCCTTCTAGTTTTTGAGA | 0.415
114 | TCCCATCCAGTAATGGAGA | 0.278
115 | TCCCCGTGAGTGGGTGAGA | 0.171
116 | TCCCGGTTAGTGTAGGAGA | 0.172
117 | TCCCATTGAGTGAAGGAGA | 0.59
118 | TCCCCCACAGTGACAGAGA | 0.239
119 | TCCCTTCCAGTGCCGGAGA | 0.0663
120 | TCCCGGCGAGTAATCGAGA | 0
121 | TCCCGAGTAGTGGAAGAGA | 0.339
122 | TCCCGGTTAGTCTTTGAGA | 0.12
123 | TCCCTTCCAGTTTGTGAGA | 0.388
124 | TCCCCCAAAGTGCCGGAGA | 0.143
125 | TCCCGGGCAGTAGTTGAGA | 0.238
126 | TCCCGGGTAGTGACCGAGA | 0.167
127 | TCCCCGAGAGTTCATGAGA | 0.176
128 | TCCCCCCAAGTGTATGAGA | 0.317
129 | TCCCGTCGAGTTGAGGAGA | 0.17
130 | TCCCACATAGTCCAGGAGA | 0.224
